# Experimental data published in PubChem BioAssay AID686978 (National Center for Advancing Translational Sciences (NCATS), 2013).
# Hit rate of the full screen: of about 420,000 compounds, about 64,000 (15%) were called active. The inconclusive results got no clear call from the source; some entries with a clear call stand among them for comparison. Calls follow the shape of the dose curve; as a rule, active = well fitted inhibition curve with a large enough effect; inconclusive = small, poorly fitted or top-dose-only effect; inactive = flat fitted curve, though single readings scatter. Potencies of inconclusive entries are left out as doubtful fits.
# Assay: qHTS for Inhibitors of human tyrosyl-DNA phosphodiesterase 1 (TDP1): qHTS in cells in absence of CPT; also: nearly all actives have a fitted effect of over 55% in size
# Conditions: DT40 Tdp1-/- hTDP1 cells, no CPT, ATP luminescence, 48 h; activity change, negative = growth inhibition: at 46.2 µM (top of the series)
# Summary of the method: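 Camptothecin absent (DMSO only). Human TDP1-complemented DT40 knockout cells, 400 cells/well, 37 °C for minimum 48 hr; ATP measured via CellTiter-Glo, 30 min dark incubation, luminescence.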
# % is scaled to controls: 0 for no effect and ±100 for the full control effect; potency is read from the fitted curve at half-maximal effect; tags tell the direction and shape of the fitted curve.
Structure (SMILES),"activity change, negative = growth inhibition",Potency
Cc1ccc(C)c(C(=O)Cn2c(NCCO)nc3ccccc32)c1,inactive: -3.94%,
CCOC(=O)c1c(C)[nH]c(C(=O)OCC(=O)Nc2cccnc2Cl)c1C,,"inconclusive [inhibitor, partial curve, poor fit]"
CCOC(=O)c1c(NC(=O)CN2CCCc3ccccc32)sc(C)c1CC,,"inconclusive [inhibitor, single point]"
Oc1ccccc1-c1nc2cnccn2c1Nc1ccc(Cl)cc1,,"inconclusive [inhibitor, single point]"
COc1ccc(CNC(=O)CN2C(=O)COc3ccccc32)c(OC)c1,inactive: -23.5%,
O=C(Nc1nncs1)c1ccc2c(c1)OCO2,inactive: -16.3%,
COc1ccc(/C=C/c2nnc(NC(=O)CC(C)C)s2)cc1,,"inconclusive [inhibitor, partial curve]"
Cc1ccc(C2=NC(C)(C)N=C2SCC(=O)Nc2ccc(Cl)cc2)cc1,,"inconclusive [inhibitor, single point]"
COc1ccc(C(=O)CC(=O)C(=O)NCCc2cccc(C)c2)cc1,,"inconclusive [inhibitor, partial curve, poor fit]"
O=C1[C@H]2[C@@H](c3ccc(F)cc3)N3C(=O)N(c4cccc(Cl)c4)C(=O)[C@@]3(Cc3ccccc3)[C@H]2C(=O)N1C1CCCCC1,,"inconclusive [inhibitor, partial curve]"
CCOC(=O)C[C@H]1c2cc(F)ccc2S(=O)(=O)N1Cc1ccc(OC)cc1,,"inconclusive [inhibitor, single point]"
O=C(NCC1COc2ccccc2O1)C1CCN(S(=O)(=O)c2ccc(Cl)cc2)CC1 (stereo unspecified),,"inconclusive [inhibitor, single point]"
O=C(NC1CCCCC1)c1cc(N2C(=O)CCC2=O)ccc1Cl,inactive: 1.6%,
CC(=O)c1ccc(NC(=O)C2CCN(S(=O)(=O)c3c(C)noc3/C=C/c3ccc(C)cc3)CC2)cc1,inactive: -14.2%,
CCCCNC(=O)c1ccc2nc(CC)c(N(CCC(C)C)CCN(C)C)n2c1,,"inconclusive [inhibitor, single point]"
Cc1nnc(C)c2c(C)n(C(C)c3ccccc3)c(C)c12 (stereo unspecified),,active: 11.6 µM
CC1CC(C)CN(CCOc2cccc(Cl)c2Cl)C1 (stereo unspecified),,"inconclusive [inhibitor, single point]"
C/C(=N\Nc1nc(N2CCCCCC2)nc(N2CCCCCC2)n1)c1ccccc1,,"inconclusive [inhibitor, single point]"
CC(C)NC(=O)N(C)C[C@@H]1Oc2cc(C#Cc3ccccn3)ccc2S(=O)(=O)N([C@@H](C)CO)C[C@H]1C,,"inconclusive [inhibitor, single point]"
CCN(CC)S(=O)(=O)c1ccc(NC(=O)CO/N=C(\N)c2ccccc2)cc1,inactive: -19.3%,
CCOC(=O)[C@]12CCC=C1N(CCC1=CCCCC1)C(=O)[C@H](CC(=O)NCc1ccc(C)o1)C2,,"inconclusive [inhibitor, single point]"

Structure (SMILES),"activity change, negative = growth inhibition",Potency
Cc1nn(-c2ccccc2)nc1CNC(=O)C1CC1,inactive: -11.5%,
CCOc1cc(/C=N/NC(=O)c2cc3c(ccc4ccccc43)o2)ccc1O,,"inconclusive [inhibitor, single point]"
O=C(CSc1nc(-c2cccs2)cc(C(F)(F)F)n1)Nc1cc(OCC(F)(F)C(F)F)cc([N+](=O)[O-])c1,,active: 11.6 µM
OCCNc1nc(Nc2cccc(O)c2)nc2ccccc12,,"inconclusive [inhibitor, partial curve, poor fit]"
O=c1[nH]c(=O)n(Cc2ccco2)c2c1C(C(F)(F)F)(C(F)(F)F)N=C(Cc1ccccc1)N2,,"inconclusive [inhibitor, partial curve, poor fit]"
NC(=O)c1c(NC(=O)CCCn2cnc([N+](=O)[O-])n2)sc2c1CCCC2,,"inconclusive [inhibitor, single point]"
CCc1nnc(NC(=O)c2oc3ccccc3c2COC(C)C)s1,inactive: -26%,
CC(C)CC(C(=O)NC(C)(C)C)N(Cc1ccccc1Cl)C(=O)c1snc(C(N)=O)c1N (stereo unspecified),,"inconclusive [inhibitor, single point]"
O=C(COC(=O)c1ccccc1C(=O)N1CCN(c2ccc(F)cc2)CC1)NCc1ccccc1,,"inconclusive [inhibitor, single point]"
COc1ccc(CN2CCOc3ccc(CN4CCC(Oc5cccnc5)CC4)cc3C2)cc1C,,"inconclusive [inhibitor, single point]"
COCCn1c(SCC(=O)Nc2cc(C)cc(C)c2)nc2ccccc2c1=O,,"inconclusive [inhibitor, single point]"
CCN(CC)C(=S)S,,"inconclusive [inhibitor, single point]"
Cc1cc(C)n(-c2ccn(Cc3ccc(Cl)cc3Cl)c(=O)n2)n1,,active: 16.4 µM
CCOC(=O)c1sc2nccc(N(C)C)c2c1N=CNOCc1ccccc1,,"inconclusive [inhibitor, single point]"
Cc1c(-c2nnnn2-c2ccc(F)cc2)cnc2cc3c(cc12)OCO3,,"inconclusive [inhibitor, partial curve]"
Cc1ccc(C)c(-n2nnnc2SCC(=O)Nc2cccc(-c3nnc4n3CCCCC4)c2)c1,,"inconclusive [inhibitor, single point]"
C(=NN=Cc1c[nH]c2ccccc12)c1c[nH]c2ccccc12,,"inconclusive [inhibitor, single point]"
Cc1ccc(C(=O)N2[C@@H]3CN(C)C(=O)[C@@]2(Cc2ccccc2)[C@H]2C(=O)N(Cc4ccccc4)C(=O)[C@@H]32)cc1,inconclusive: -30.9% [inhibitor],
Cc1ccc(OCC(=O)N/N=C/c2cccn2C)cc1C,,"inconclusive [inhibitor, single point]"
COc1ccccc1NC(=O)C(Sc1ccccc1)c1ccccc1 (stereo unspecified),,"inconclusive [inhibitor, single point]"
